# Reference: the antibiotic and cytotoxicity screens of Wong et al. (2023)
# The other results are listed elsewhere or left out.
# Test system: HSkMC (human skeletal muscle cells)
# Test: cytotoxicity call (relative viability < 0.9)
# Conditions: 10 µM
row,Structure (SMILES),cytotoxicity call
1,CC(C)(O)C#Cc1cccc(-c2nc(C(=O)NCCCN3CCOCC3)cc3c2[C@@H](CCO)N(S(=O)C(C)(C)C)C3)c1 (stereo partly specified),inactive
2,C=CC[C@@H](CC(=O)N[C@H](CO)Cc1ccccc1)C(=O)N[C@@H](COC(=O)[C@@H](CC=C)NC(=O)OCC1c2ccccc2-c2ccccc21)Cc1c[nH]c2ccccc12,active
3,C[C@@H]1CN([C@H](C)CO)C(=O)c2cc(NC(=O)Cc3ccccc3)ccc2O[C@@H](C)CCCCO[C@@H]1CN(C)S(=O)(=O)c1ccc(F)cc1,inactive
4,CO[C@@H]1[C@@H](O)[C@H](O)[C@H](O)[C@H](O)[C@@H]1O,inactive
5,C[C@@H]1CN([C@@H](C)CO)C(=O)c2cc(NC(=O)Nc3ccc(C(F)(F)F)cc3)ccc2O[C@@H](C)CCCCO[C@@H]1CN(C)S(=O)(=O)c1cccs1,inactive
6,COc1ccc(NC(=O)Nc2ccc3c(c2)C(=O)N([C@@H](C)CO)C[C@@H](C)[C@H](CN(C)S(=O)(=O)c2cccs2)OCCCC[C@@H](C)O3)cc1,inactive
7,COc1ccc(CN(C)C[C@H]2OCCCC[C@H](C)Oc3ccc(NS(=O)(=O)c4ccccc4)cc3C(=O)N([C@@H](C)CO)C[C@@H]2C)cc1,inactive
8,COc1ccc(S(=O)(=O)N(C)C[C@H]2OCCCC[C@H](C)Oc3ccc(NC(=O)Nc4ccc5c(c4)OCO5)cc3C(=O)N([C@H](C)CO)C[C@@H]2C)cc1,inactive
9,C[C@@H]1CN([C@@H](C)CO)C(=O)c2cc(NC(=O)Nc3cccc4ccccc34)ccc2O[C@@H](C)CCCCO[C@@H]1CN(C)S(=O)(=O)c1ccc(F)cc1,inactive
10,CN(C)C(=O)N[C@H]1CN(S(C)(=O)=O)[C@H]2CCCO[C@@H]12,inactive
11,COc1ccc(NC(=O)N(C)C[C@H]2Oc3ccc(NC(=O)Nc4cccc5ccccc45)cc3C(=O)N([C@H](C)CO)C[C@@H]2C)cc1,inactive
12,C[C@@H]1CN([C@@H](C)CO)C(=O)c2cccc(NC(=O)Nc3ccc4c(c3)OCO4)c2O[C@H]1CN(C)C(=O)Nc1cccc2ccccc12,inactive
13,COc1ccc(NC(=O)N(C)C[C@@H]2Oc3ccc(NC(=O)Nc4ccc(C(F)(F)F)cc4)cc3C(=O)N([C@H](C)CO)C[C@@H]2C)cc1,inactive
14,CN(C)CC(=O)N[C@@H]1C=C[C@@H](CC(=O)NCCN2CCCCC2)O[C@@H]1CO,inactive
15,CO[C@@H]1CN(C)C(=O)c2ccc(NC(=O)c3nc4ccccc4s3)cc2OC[C@@H](C)N(Cc2ccccc2)C[C@H]1C,inactive
16,OCCN1CCN(c2ncnc3c2ncn3[C@H]2CN(Cc3ccc(Cl)cc3)C[C@@H](CO)O2)CC1,inactive

# Test system: HepG2
# Test: cytotoxicity call (relative viability < 0.9)
# Conditions: 10 µM
row,Structure (SMILES),cytotoxicity call
1,C=CN1CCCC1=O,inactive
2,COc1ccc(NC(=O)Nc2ccc3c(c2)C(=O)N([C@@H](C)CO)C[C@@H](C)[C@H](CN(C)Cc2ccccc2)OCCCC[C@H](C)O3)cc1,active
3,COc1ccc(S(=O)(=O)N(C)C[C@@H]2Oc3ccc(NC(=O)c4ccncc4)cc3C(=O)N([C@H](C)CO)C[C@@H]2C)cc1,inactive
4,CC1CC2C3CCC4=CC(=O)C=CC4(C)C3(F)C(O)CC2(C)C1(O)C(=O)CO (stereo unspecified),inactive
5,C[C@@H]1CN([C@H](C)CO)C(=O)c2cc(NS(=O)(=O)c3cn(C)cn3)ccc2O[C@H]1CN(C)Cc1ccncc1,inactive
6,COc1ccc(NC(=O)Nc2ccc3c(c2)[C@H]2C[C@H](CC(=O)N4CCN(C)CC4)O[C@@H](CO)[C@H]2O3)cc1,inactive
7,COc1cc2c(NC3CCN(C(C)C)CC3)nc(N3CCC(F)(F)CC3)nc2cc1OCCCN1CCCC1,active
8,[N-]=[N+]=N[C@]1(CO)O[C@@H](n2ccc(N)nc2=O)[C@@H](O)[C@@H]1O,inactive
9,C[C@@H]1CN([C@H](C)CO)S(=O)(=O)c2ccc(C#CC3CC3)cc2O[C@H]1CN(C)Cc1ccc(F)cc1,active
10,O[C@@H]1[C@@H](O)[C@H]2OC[C@@H](O2)[C@H]1O,inactive
11,O[C@@H]1[C@@H](O)[C@H](OC/C=C/c2ccccc2)O[C@H](CO[C@@H]2OC[C@@H](O)[C@@H](O)[C@@H]2O)[C@H]1O,inactive
12,CCCC[C@@H](C#N)c1ccc(F)cn1,inactive
13,Cc1ccc2n[nH]c(C(=O)N3CCN4C(=O)CNC(=O)[C@@H]4C3)c2c1,inactive
14,COc1ccc(NC(=O)O[C@H]2[C@@H]3OC(=O)[C@H](Cc4cccc(Br)c4)C/C=C/C[C@@H](Cc4cccc(Br)c4)C(=O)O[C@H]3[C@@H](OC)O[C@@H]2CO)cc1,inactive
15,C[C@@H]1CN([C@H](C)CO)C(=O)c2cc(NC(=O)NC3CCCCC3)ccc2O[C@@H](C)CCCCO[C@H]1CN(C)C(=O)c1ccccc1,inactive
16,C[C@H](CO)N1C[C@H](C)[C@H](CN(C)C(=O)Nc2ccc3c(c2)OCCO3)OCc2cn(nn2)CCCC1=O,inactive
17,C[C@H](CO)N1C[C@H](C)[C@H](CN(C)C(=O)Nc2cccc3ccccc23)OCCCC[C@H](C)Oc2ccc(NS(C)(=O)=O)cc2C1=O,inactive
18,C[C@H](CO)N1C[C@H](C)[C@H](CN(C)S(C)(=O)=O)Oc2cc(C#Cc3ccccc3)ccc2S1(=O)=O,inactive
19,CNC(=O)CN(C#N)c1nc(N(C)C)nc(N(C)C)n1,inactive
20,COC(=O)[C@@H](N)Cc1ccc(-n2cc(CCC(=O)NO)nn2)cc1,active

row,Structure (SMILES),cytotoxicity call
1,CCC(C)C(=O)OC1CCC=C2C=CC(C)C(CCC3CC(O)CC(=O)O3)C21 (stereo unspecified),active
2,CCOC(=O)CCC(=O)OC1C(OC2C(C)C(OC3CC(C)(OC)C(O)C(C)O3)C(C)C(=O)OC(CC)C(C)(O)C(O)C(C)C(=O)C(C)CC2(C)O)OC(C)CC1N(C)C (stereo unspecified),inactive
3,C[C@@H]1CN([C@@H](C)CO)C(=O)Cc2cc(NS(C)(=O)=O)ccc2O[C@@H]1CN(C)Cc1ccc(C(F)(F)F)cc1,inactive
4,N[C@@H](C(=O)N[C@@H]1C(=O)N2C(C(=O)O)=C(Cl)CS[C@H]12)c1ccccc1,inactive
5,CC(C)(O)C#Cc1cccc(-c2nc(C(=O)NCCCN3CCOCC3)cc3c2[C@@H](CCO)N(S(=O)C(C)(C)C)C3)c1 (stereo partly specified),inactive
6,C=CC[C@@H](CC(=O)N[C@H](CO)Cc1ccccc1)C(=O)N[C@@H](COC(=O)[C@@H](CC=C)NC(=O)OCC1c2ccccc2-c2ccccc21)Cc1c[nH]c2ccccc12,inactive
7,C[C@@H]1CN([C@H](C)CO)C(=O)c2cc(NC(=O)Cc3ccccc3)ccc2O[C@@H](C)CCCCO[C@@H]1CN(C)S(=O)(=O)c1ccc(F)cc1,inactive
8,CO[C@@H]1[C@@H](O)[C@H](O)[C@H](O)[C@H](O)[C@@H]1O,inactive
9,C[C@@H]1CN([C@@H](C)CO)C(=O)c2cc(NC(=O)Nc3ccc(C(F)(F)F)cc3)ccc2O[C@@H](C)CCCCO[C@@H]1CN(C)S(=O)(=O)c1cccs1,inactive
10,COc1ccc(NC(=O)Nc2ccc3c(c2)C(=O)N([C@@H](C)CO)C[C@@H](C)[C@H](CN(C)S(=O)(=O)c2cccs2)OCCCC[C@@H](C)O3)cc1,inactive
11,COc1ccc(CN(C)C[C@H]2OCCCC[C@H](C)Oc3ccc(NS(=O)(=O)c4ccccc4)cc3C(=O)N([C@@H](C)CO)C[C@@H]2C)cc1,inactive
12,COc1ccc(S(=O)(=O)N(C)C[C@H]2OCCCC[C@H](C)Oc3ccc(NC(=O)Nc4ccc5c(c4)OCO5)cc3C(=O)N([C@H](C)CO)C[C@@H]2C)cc1,inactive
13,C[C@@H]1CN([C@@H](C)CO)C(=O)c2cc(NC(=O)Nc3cccc4ccccc34)ccc2O[C@@H](C)CCCCO[C@@H]1CN(C)S(=O)(=O)c1ccc(F)cc1,inactive
14,CN(C)C(=O)N[C@H]1CN(S(C)(=O)=O)[C@H]2CCCO[C@@H]12,inactive
15,COc1ccc(NC(=O)N(C)C[C@H]2Oc3ccc(NC(=O)Nc4cccc5ccccc45)cc3C(=O)N([C@H](C)CO)C[C@@H]2C)cc1,inactive
16,C[C@@H]1CN([C@@H](C)CO)C(=O)c2cccc(NC(=O)Nc3ccc4c(c3)OCO4)c2O[C@H]1CN(C)C(=O)Nc1cccc2ccccc12,inactive
17,COc1ccc(NC(=O)N(C)C[C@@H]2Oc3ccc(NC(=O)Nc4ccc(C(F)(F)F)cc4)cc3C(=O)N([C@H](C)CO)C[C@@H]2C)cc1,inactive
18,CN(C)CC(=O)N[C@@H]1C=C[C@@H](CC(=O)NCCN2CCCCC2)O[C@@H]1CO,inactive
19,CO[C@@H]1CN(C)C(=O)c2ccc(NC(=O)c3nc4ccccc4s3)cc2OC[C@@H](C)N(Cc2ccccc2)C[C@H]1C,inactive
20,OCCN1CCN(c2ncnc3c2ncn3[C@H]2CN(Cc3ccc(Cl)cc3)C[C@@H](CO)O2)CC1,inactive
